This is one part of the list. Most values come without repeats; read them as rough.
Legend:
Assay in all cases: cell count relative to DMSO control; melanoma cells; higher = more viable cells
Details in all cases: library dose: standard library concentration; 72 h
[1] = test system: G361
[2] = test system: IPC-298
[3] = test system: IST-MEL1
[4] = test system: LB2518-MEL
[5] = test system: LOXIMVI
[6] = test system: MEL-HO
[7] = test system: MZ2-MEL
[8] = test system: MeWo
[9] = test system: RPMI7951
[10] = test system: RVH-421
[11] = test system: SkMel28
[12] = test system: SkMel2
[13] = test system: SkMel30
[14] = test system: SkMel5
[15] = test system: UACC257
[16] = test system: UACC62
[17] = test system: WM115
[18] = test system: WM1716
[19] = test system: WM1745
[20] = test system: WM3526
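Also: cells treated in 1,536-well plates, then fixed and DAPI-stained, with nuclei counted from automated high-throughput microscope images.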

| SMILES | cell count [1] | cell count [2] | cell count [3] | cell count [4] | cell count [5] | cell count [6] | cell count [7] | cell count [8] | cell count [9] | cell count [10] | cell count [11] | cell count [12] | cell count [13] | cell count [14] | cell count [15] | cell count [16] | cell count [17] | cell count [18] | cell count [19] | cell count [20] |
| --- | --- | --- | --- | --- | --- | --- | --- | --- | --- | --- | --- | --- | --- | --- | --- | --- | --- | --- | --- | --- |
| O=C(Nc1cc(C(F)(F)F)cc(C(F)(F)F)c1)c1cc(Cl)ccc1O + O=C(O)c1ccc2c(c1)nc(Nc1cccc(Cl)c1)c1ccncc12 [CX4945] (first compound 0.08 µM, partner dose 2 µM) | 79.4% | 73.9% | 106% | 149% | 117% | 75.1% | 83.4% | 100% | 91.3% | 94% | 141% | 92.7% | 111% | 135% | 116% | 82.8% | 135% | 112% | 87.2% | 113% |
| O=C(Nc1cc(C(F)(F)F)cc(C(F)(F)F)c1)c1cc(Cl)ccc1O + COc1cc(Nc2ncc(F)c(Nc3ccc4c(n3)NC(=O)C(C)(C)O4)n2)cc(OC)c1OC [Tamatinib] (first compound 0.08 µM, partner dose 2 µM) | 65.5% | 78.8% | 55.9% | 82% | 24.3% | 58.8% | 85.6% | 62.9% | 34.3% | 86.1% | 81.2% | 56.3% | 78% | 37.4% | 78.1% | 66.6% | 79.5% | 78.2% | 29.3% | 60.4% |
| O=C(Nc1cc(C(F)(F)F)cc(C(F)(F)F)c1)c1cc(Cl)ccc1O + COCC[n+]1c2c(n(Cc3cnccn3)c1C)C(=O)c1ccccc1C2=O [YM155] (first compound 0.08 µM, partner dose 0.002 µM) | 76.3% | 38.6% | 57.2% | 29% | 68.9% | 91% | 31.4% | 70.3% | 44.4% | 116% | 47.2% | 39.8% | 77.1% | 42.2% | 34.7% | 70% | 94.9% | 80.5% | 109% | 64.8% |
| Cc1cc(N2CCOCC2)cc2[nH]c(-c3c(NC[C@@H](O)c4cccc(Cl)c4)cc[nH]c3=O)nc12 + O=S(=O)(c1ccccc1)N(CC(F)(F)F)c1ccc(C(O)(C(F)(F)F)C(F)(F)F)cc1 [T0901317] (first compound 1 µM, partner dose 7 µM) | 77.9% | 80.2% | 79.9% | 99.5% | 212% | 91.9% | 103% | 86.8% | 125% | 108% | 86.2% | 87.2% | 74.2% | 61.9% | 90.9% | 85.7% | 108% | 111% | 58.2% | 83.9% |
| O=C(Nc1cc(C(F)(F)F)cc(C(F)(F)F)c1)c1cc(Cl)ccc1O + CO[C@@H]1[C@H](N(C)C(=O)c2ccccc2)C[C@H]2O[C@]1(C)n1c3ccccc3c3c4c(c5c6ccccc6n2c5c31)C(=O)NC4 [Midostaurin] (first compound 0.08 µM, partner dose 0.4 µM) | 45% | 60.8% | 74.2% | 68.3% | 60.9% | 70.1% | 51.9% | 72.9% | 37.8% | 83.6% | 40.3% | 38.8% | 67.8% | 47.5% | 66.1% | 63.6% | 46.1% | 51.2% | 26.3% | 65.8% |
| Cc1cc(N2CCOCC2)cc2[nH]c(-c3c(NC[C@@H](O)c4cccc(Cl)c4)cc[nH]c3=O)nc12 + N#Cc1c(O)c2c(-c3ccc(-c4ccccc4O)cc3)csc2[nH]c1=O [A769662] (first compound 1 µM, partner dose 10 µM) | 104% | 112% | 103% | 106% | 101% | 98.4% | 113% | 108% | 116% | 78.1% | 102% | 104% | 73.2% | 75.4% | 98% | 86% | 108% | 105% | 75.7% | 82% |
